Results as given in the supplement of paper PMC8728848.
The list shows a part of the results.

Tests used:
Test in all cases: glycan array binding signal (z-score within array); higher = stronger binding
Details in all cases: glycan notation: IUPAC condensed, linker removed
[1] = biological target: Gal(b1-4)GlcNAc(b1-2)Man(a1-3)[Gal(b1-4)GlcNAc(b1-2)Man(a1-6)]Man(b1-4)GlcNAc(b1-4)GlcNAc
Outline: (§1)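 Arrays were curated from the Consortium for Functional Glycomics database, 3228 in total, and kept only where the protein sequence was available. Binding is expressed as a within-array Z-score. This score was averaged across arrays of the same protein sequence at different concentrations or buffers and across linkers, and negative values can be read as non-binding.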

[2] = biological target: Gal(b1-4)GlcNAc(b1-2)Man(a1-3)[Gal(b1-4)GlcNAc(b1-2)Man(a1-6)]Man(b1-4)GlcNAc(b1-4)[Fuc(a1-6)]GlcNAc
Outline: as §1

[3] = biological target: Gal(b1-4)GlcNAc(b1-2)Man(a1-3)[Gal(b1-4)GlcNAc(b1-2)][GlcNAc(b1-4)]Man(b1-4)GlcNAc(b1-4)GlcNAc
Outline: as §1

[4] = biological target: Gal(b1-4)GlcNAc(b1-2)Man(a1-3)[GlcNAc(b1-2)Man(a1-6)]Man(b1-4)GlcNAc(b1-4)GlcNAc
Outline: as §1

[5] = biological target: Gal(b1-4)GlcNAc(b1-2)Man(a1-3)[Man(a1-6)]Man(b1-4)GlcNAc(b1-4)GlcNAc
Outline: as §1

[6] = biological target: Gal(b1-4)GlcNAc(b1-2)Man(a1-6)Man(b1-4)GlcNAc(b1-4)GlcNAc
Outline: as §1

[7] = biological target: Gal(b1-4)GlcNAc(b1-2)Man(a1-6)[GlcNAc(b1-2)Man(a1-3)]Man(b1-4)GlcNAc(b1-4)GlcNAc
Outline: as §1

[8] = biological target: Gal(b1-4)GlcNAc(b1-2)Man(a1-6)[Man(a1-3)]Man(b1-4)GlcNAc(b1-4)GlcNAc
Outline: as §1

[9] = biological target: Gal(b1-4)GlcNAc(b1-2)[Gal(b1-4)GlcNAc(b1-4)]Man(a1-3)[Gal(b1-4)GlcNAc(b1-2)Man(a1-6)]Man(b1-4)GlcNAc(b1-4)GlcNAc
Outline: as §1

[10] = biological target: Gal(b1-4)GlcNAc(b1-2)[Gal(b1-4)GlcNAc(b1-4)]Man(a1-3)[Gal(b1-4)GlcNAc(b1-2)[Gal(b1-4)GlcNAc(b1-6)]Man(a1-6)]Man(b1-4)GlcNAc(b1-4)GlcNAc
Outline: as §1

[11] = biological target: Gal(b1-4)GlcNAc(b1-2)[Gal(b1-4)GlcNAc(b1-4)]Man(a1-3)[GlcNAc(b1-4)][Gal(b1-4)GlcNAc(b1-2)Man(a1-6)]Man(b1-4)GlcNAc(b1-4)GlcNAc
Outline: as §1

[12] = biological target: Gal(b1-4)GlcNAc(b1-2)[Gal(b1-4)GlcNAc(b1-4)]Man(a1-3)[GlcNAc(b1-4)][Gal(b1-4)GlcNAc(b1-2)[Gal(b1-4)GlcNAc(b1-6)]Man(a1-6)]Man(b1-4)GlcNAc(b1-4)GlcNAc
Outline: as §1

[13] = biological target: Gal(b1-4)GlcNAc(b1-2)[Gal(b1-4)GlcNAc(b1-6)]Man(a1-6)[Gal(b1-4)GlcNAc(b1-2)Man(a1-3)]Man(b1-4)GlcNAc(b1-4)GlcNAc
Outline: as §1

[14] = biological target: Gal(b1-4)GlcNAc(b1-2)[Gal(b1-4)GlcNAc(b1-6)]Man(a1-6)[GlcNAc(b1-4)][Gal(b1-4)GlcNAc(b1-2)Man(a1-3)]Man(b1-4)GlcNAc(b1-4)GlcNAc
Outline: as §1

[15] = biological target: Gal(b1-4)GlcNAc(b1-3)Gal(b1-3)GlcNAc
Outline: as §1

[16] = biological target: Gal(b1-4)GlcNAc(b1-3)Gal(b1-4)Glc
Outline: as §1

[17] = biological target: Gal(b1-4)GlcNAc(b1-3)Gal(b1-4)GlcNAc
Outline: as §1

[18] = biological target: Gal(b1-4)GlcNAc(b1-3)Gal(b1-4)GlcNAc(b1-3)Gal(b1-4)GlcNAc
Outline: as §1

[19] = biological target: Gal(b1-4)GlcNAc(b1-3)Gal(b1-4)[Fuc(a1-3)GlcNAc(b1-6)]Gal(b1-4)Glc
Outline: as §1

[20] = biological target: Gal(b1-4)GlcNAc(b1-3)Gal(b1-4)[Fuc(a1-3)]GlcNAc(b1-3)Gal(b1-4)[Fuc(a1-3)]GlcNAc
Outline: as §1

[21] = biological target: Gal(b1-4)GlcNAc(b1-3)GalNAc
Outline: as §1

[22] = biological target: Gal(b1-4)GlcNAc(b1-3)[Gal(b1-4)GlcNAc(b1-6)]Gal(b1-4)GlcNAc
Outline: as §1

[23] = biological target: Gal(b1-4)GlcNAc(b1-3)[Gal(b1-4)GlcNAc(b1-6)]GalNAc
Outline: as §1

[24] = biological target: Gal(b1-4)GlcNAc(b1-3)[GlcNAc(b1-6)]Gal(b1-4)GlcNAc
Outline: as §1

[25] = biological target: Gal(b1-4)GlcNAc(b1-6)Gal(b1-4)GlcNAc
Outline: as §1

[26] = biological target: Gal(b1-4)GlcNAc(b1-6)GalNAc
Outline: as §1

[27] = biological target: Gal(b1-4)GlcNAc(b1-6)[Gal(b1-3)]GalNAc
Outline: as §1

Gal(b1-6)Gal = biological target: Gal(b1-6)Gal
Outline: as §1

Gal3S(b1-3)GalNAc = biological target: Gal3S(b1-3)GalNAc
Outline: as §1

Gal3S(b1-3)GlcNAc = biological target: Gal3S(b1-3)GlcNAc
Outline: as §1

[28] = biological target: Gal3S(b1-3)[Fuc(a1-4)]GlcNAc
Outline: as §1

Gal3S(b1-4)Glc = biological target: Gal3S(b1-4)Glc
Outline: as §1

Gal3S(b1-4)Glc6S = biological target: Gal3S(b1-4)Glc6S
Outline: as §1

Gal3S(b1-4)GlcNAc = biological target: Gal3S(b1-4)GlcNAc
Outline: as §1

Gal3S(b1-4)GlcNAc6S = biological target: Gal3S(b1-4)GlcNAc6S
Outline: as §1

[29] = biological target: Gal3S(b1-4)[Fuc(a1-3)]Glc
Outline: as §1

[30] = biological target: Gal3S(b1-4)[Fuc(a1-3)]Glc6S
Outline: as §1

Gal3S4S(b1-4)GlcNAc = biological target: Gal3S4S(b1-4)GlcNAc
Outline: as §1

Gal3S6S(b1-4)GlcNAc = biological target: Gal3S6S(b1-4)GlcNAc
Outline: as §1

Gal3S6S(b1-4)GlcNAc6S = biological target: Gal3S6S(b1-4)GlcNAc6S
Outline: as §1

Gal4S(b1-4)GlcNAc = biological target: Gal4S(b1-4)GlcNAc
Outline: as §1

Gal4S6S(b1-4)GlcNAc = biological target: Gal4S6S(b1-4)GlcNAc
Outline: as §1

Gal6S(b1-3)GlcNAc = biological target: Gal6S(b1-3)GlcNAc
Outline: as §1

Gal6S(b1-3)GlcNAc6S = biological target: Gal6S(b1-3)GlcNAc6S
Outline: as §1

Gal6S(b1-4)Glc = biological target: Gal6S(b1-4)Glc
Outline: as §1

B1: PpFlo3 (Pichia pastoris) (protein)
chain: MGSSHHHHHHSSGLVPRGSHMQESGNGTTSDTAYACDIGATPFDGFNATIYQYQASDDNSIQDPVFMSTGYLQRNQLHSTTGVTNPGFNIFTAGVATTTLYGIPNVNYQNMLLELKGYFRADASGNYGLSLRNIDDSAILFFGRETAFECCNENLIPLDEAPTDYSLFTIKEGEASTNPDSYTYTQYLEAGRYYPVRTFFANIRTRAVFNFTMTLPDGSELTDFQNYIFQFGALNQ
glycan array binding signal (z-score) [1]: -0.274
glycan array binding signal (z-score) [2]: -0.276
glycan array binding signal (z-score) [3]: -0.307
glycan array binding signal (z-score) [4]: -0.246
glycan array binding signal (z-score) [5]: -0.233
glycan array binding signal (z-score) [6]: -0.256
glycan array binding signal (z-score) [7]: 4.01
glycan array binding signal (z-score) [8]: -0.108
glycan array binding signal (z-score) [9]: -0.279
glycan array binding signal (z-score) [10]: -0.229
glycan array binding signal (z-score) [11]: -0.285
glycan array binding signal (z-score) [12]: -0.245
glycan array binding signal (z-score) [13]: -0.251
glycan array binding signal (z-score) [14]: -0.288
glycan array binding signal (z-score) [15]: 0.131
glycan array binding signal (z-score) [16]: -0.28
glycan array binding signal (z-score) [17]: 0.122
glycan array binding signal (z-score) [18]: -0.284
glycan array binding signal (z-score) [19]: -0.282
glycan array binding signal (z-score) [20]: -0.266
glycan array binding signal (z-score) [21]: -0.236
glycan array binding signal (z-score) [22]: -0.277
glycan array binding signal (z-score) [23]: -0.249
glycan array binding signal (z-score) [24]: -0.276
glycan array binding signal (z-score) [25]: -0.284
glycan array binding signal (z-score) [26]: -0.284
glycan array binding signal (z-score) [27]: -0.293
glycan array binding signal (z-score) (Gal(b1-6)Gal): -0.281
glycan array binding signal (z-score) (Gal3S(b1-3)GalNAc): -0.166
glycan array binding signal (z-score) (Gal3S(b1-3)GlcNAc): -0.271
glycan array binding signal (z-score) [28]: 5.08
glycan array binding signal (z-score) (Gal3S(b1-4)Glc): -0.288
glycan array binding signal (z-score) (Gal3S(b1-4)Glc6S): -0.198
glycan array binding signal (z-score) (Gal3S(b1-4)GlcNAc): -0.285
glycan array binding signal (z-score) (Gal3S(b1-4)GlcNAc6S): -0.263
glycan array binding signal (z-score) [29]: -0.287
glycan array binding signal (z-score) [30]: -0.25
glycan array binding signal (z-score) (Gal3S4S(b1-4)GlcNAc): 1.18
glycan array binding signal (z-score) (Gal3S6S(b1-4)GlcNAc): -0.27
glycan array binding signal (z-score) (Gal3S6S(b1-4)GlcNAc6S): -0.269
glycan array binding signal (z-score) (Gal4S(b1-4)GlcNAc): -0.223
glycan array binding signal (z-score) (Gal4S6S(b1-4)GlcNAc): -0.279
glycan array binding signal (z-score) (Gal6S(b1-3)GlcNAc): -0.289
glycan array binding signal (z-score) (Gal6S(b1-3)GlcNAc6S): -0.284
glycan array binding signal (z-score) (Gal6S(b1-4)Glc): -0.224
